According to PubChem BioAssay (Tox21):
Where “and” joins values, the source holds several entries; their conditions need not be identical. Equal values may be shown once. Inconclusive means that the source gave no clear call. Such entries were picked first, then a sample of the others. A potency beside an inconclusive call is a rough fit, not a confirmed value. Calls of active or inactive are those of the source. The call rests on the fitted dose curve; in most records, active means well fitted activation curve with a large enough effect in the repeat runs; inconclusive means weak or mixed curves, or effect the other way; inactive means no such curve, though single readings can be large or run the other way.

Test: qHTS assay to identify small molecule agonists of the retinoic acid receptor (RAR) signaling pathway (AID 1159553)
Settings: C3RL4 RARE luciferase reporter, agonist, 6 h; activation: at 73.3 µM (top of the series) unless noted
Outline: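 Luminescence from a RARE-driven luciferase reporter in C3RL4 cells served as the read-out, measured after 30 min with detection reagent at room temperature. Compounds in DMSO were applied for 6 hr at 37 C following overnight seeding.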
On the % scale 0 is the no-effect control and ±100 the full control effect; potency means the concentration at half of the fitted maximal effect; tags describe the fitted curve by direction and shape.

| Compound | activation | Potency |
| --- | --- | --- |
| OCC1CCC(CO)CC1 (configuration not stated) | inactive: 0.858% [at 94.8 µM] |  |
| Cc1ccc(S(=O)(=O)NC(=O)NC2CCCCC2)cc1 | inactive: 0.226% |  |
| Nc1ccc(S(=O)(=O)NC(=O)c2ccccc2)cc1 | inactive: 0.565% |  |
| CC/C=C\CCOC(=O)c1ccccc1 |  | active: 68.6 µM |
| Nc1ccc(Cl)cc1Cl |  | inconclusive: 24.1 µM [inhibitor, full curve] |
| CN1Cc2c(N)cccc2C(c2ccccc2)C1 (configuration not stated) |  | inactive |
| O=C1c2ccccc2Cc2ccccc21 | inconclusive: 6.87% [phenotype inactive] [at 94.8 µM] |  |
| Nc1nc(-c2ccccc2)c(Br)c(=O)[nH]1 | inactive: -0.264% |  |
| C1CCOC1 | inactive: -0.176% [at 94.8 µM] |  |
| CC(C)c1ccc2ncccc2c1 |  | inconclusive: 77 µM [activator, partial curve, poor fit] |
| CC1=NN(c2ccc(S(=O)(=O)O)cc2)C(=O)C1N=Nc1ccccc1 (configuration not stated) | inactive: 3.45% |  |
| O=C(OCc1ccccc1)c1ccccc1O | inconclusive: 8.06% [phenotype inactive] | active: 9.62 µM |
| CCC(C)c1ccccc1O (configuration not stated) |  | inactive |
| c1ccc2c(c1)ccc1cc3c(ccc4ccccc43)cc12 |  | active: 152 nM and active: 215 nM |
| CCCCCCCCCCCCCCCCCC(=O)OCC(O)CO (configuration not stated) |  | inactive |
| C1COC1 | inconclusive: 2.62% [phenotype inactive] |  |

| Compound | activation | Potency |
| --- | --- | --- |
| CN(C)c1ccc(/C=C/c2ccc([N+](=O)[O-])cc2)cc1 |  | active: 0.219 µM |
| Nc1ccc(C(=O)OCC(O)CO)cc1 (configuration not stated) | inactive: 0.14% |  |
| CCCC(=O)O |  | inactive |
| O=c1cccccc1O |  | inconclusive: 44.1 µM [inhibitor, partial curve, poor fit] |
| COc1cc(/C=C/C(=O)O[C@H]2CC[C@]34C[C@]35CC[C@]3(C)[C@@H]([C@H](C)CCC=C(C)C)CC[C@@]3(C)[C@@H]5CC[C@H]4C2(C)C)ccc1O | inactive: -8.89% |  |
| Cc1ccc2oc(=O)ccc2c1 |  | inconclusive: 4.46 µM [activator, full curve] and inactive |
| CNc1ccc([N+](=O)[O-])cc1 |  | inconclusive: 77.1 µM [activator, single point] |
| CCCCCCCC/C=C\CCCCCCCC(=O)NCc1ccc(O)c(OC)c1 |  | inconclusive: 11.9 µM [activator, full curve] |
| COc1cc2c(c(OC)c1OC)-c1ccc(OC)c(=O)cc1[C@@H](NC(C)=O)CC2 |  | inactive and inconclusive: 43.3 nM [inhibitor, partial curve, poor fit] and inconclusive: 33.5 nM [inhibitor, full curve] |
| Cc1[nH]cnc1-c1ccc(Cl)cc1 |  | inconclusive: 15 µM [activator, partial curve] |
| O=C(O)c1ccc(Cl)c(Cl)c1 | inactive: -2.61% |  |
| CC(=O)CC(=O)Nc1ccccc1 |  | inactive |
| OC[C@]1(O)OC[C@@H](O)[C@H](O)[C@@H]1O |  | inactive |
| N[C@@H](Cc1ccc(O)cc1)C(=O)O | inactive: 0.0879% [at 8.36 µM] |  |
| CC(C)CCOC(=O)/C=C/c1ccccc1 |  | active: 10.9 µM |
